Data on 3 proteins can be found in publication PMC13347060, “Structural flexibility of the human vault particle revealed by high-resolution cryo-EM and molecular dynamics simulations” (Nature Communications, 2026).

The data set concerns the molecule itself. Nature of the data set: SEC-MALS; Shodex KW405-4F column, 0.33 mL/min, SEC buffer (25 mM HEPES, 150 mM NaCl, 1 mM TCEP, pH 7.5); full vault (78-mer) against half vaults (39-mer). Background: Size exclusion chromatography separates by hydrodynamic size, large species first.

B1: MVP(Q38A, N40A) (natural protein)
chain: not shown
notes: major vault protein, human, gene GenBank BC015623.2 in pGAPZB, mutated by PCR; Mixture of full vaults (78-mer) and half vaults (39-mer); same construct as m1 apart from the mutations; also called hMVP Q38A-N40A; source: K. phaffii, integrated mutant hMVP gene, purified (ultracentrifugation, SEC)
For B1, the binding result is “binds”.

B2: MVP(D39A, R42A) (natural protein)
chain: not shown
notes: major vault protein, human, gene GenBank BC015623.2 in pGAPZB, mutated by PCR; Mixture of full vaults (78-mer) and half vaults (39-mer); same construct as m1 apart from the mutations; also called hMVP D39A-R42A; source: K. phaffii, integrated mutant hMVP gene, purified (ultracentrifugation, SEC)
With B2, the binding result is recorded as “binds”.

B3: MVP(I36D) (natural protein)
chain: not shown
notes: major vault protein, human, gene GenBank BC015623.2 in pGAPZB, mutated by PCR; Predominantly half vaults (39-mer); same construct as m1 apart from the mutation; also called hMVP I36D; source: K. phaffii, integrated mutant hMVP gene, purified (ultracentrifugation, SEC)
Take B3: the binding result is on record as “binds”.
